Reference: patent publication US20250188165A1, “COMBINATIONS WITH AN ANTI HUMAN CD39 ANTIBODY, AN ANTI HUMAN PD-1 ANTIBODY, AND CHEMOTHERAPY IN GASTRIC CANCER” (Trishula Therapeutics Inc, priority 2022, published 2025)

Test: Clinical PK of anti-human CD39 antibody in dose escalation
Type: in vivo
Conditions: 40 mg/kg Q3W
Protocol: After the completion of the dose escalation portion of the study, the totality of the PK data was used for PK modeling for the RP2D. Based on simulations, it was determined that a loading dose of 40 mg/kg one week prior to Cycle 1, Day 1 dosing of 30 mg/kg Q3W or 20 mg/kg Q2W will provide a minimal functional trough level in greater than 80% of subjects before Cycle 1, Day 1 and in cycles thereafter.

B1: anti-human CD39 antibody: Antibody with VH SEQ ID NO: 25, VL SEQ ID NO: 29; heavy chain SEQ ID NO: 33, light chain SEQ ID NO: 34 (antibody)
heavy: QVQLVQSGAEVKKPGASVKVSCKASGYTFKSYEMHWVRQAPGQGLEWMGRINPSVGSTWYAQKFQGRVTMTRDTSTSTVYMELSSLRSEDTAVYYCARGKREGGTEYLRKWGQGTLVTVSSASTKGPSVFPLAPCSRSTSESTAALGCLVKDYFPEPVTVSWNSGALTSGVHTFPAVLQSSGLYSLSSVVTVPSSSLGTKTYTCNVDHKPSNTKVDKRV[human IgG4 Fc with S228P (EU numbers) cut from this listing]
light: EIVLTQSPGTLSLSPGERATLSCRASQSVASSYLAWYQQKPGQAPRLLIYGASNRHTGIPDRFSGSGSGTDFTLTISRLEPEDFAVYYCQQYHNAITFGGGTKVEIKRTVAAPSVFIFPPSDEQLKSGTASVVCLLNNFYPREAKVQWKVDNALQSGNSQESVTEQDSKDSTYSLSSTLTLSKADYEKHKVYACEVTHQGLSSPVTKSFNRGEC
- trough level versus minimal functional level from preclinical human functional assays: achieved a minimal functional trough level
